Experimental data as given in publication PMC4336329 (PLoS ONE, 2015).
The whole screen tested about 310,000 compounds, of which about 14,000 (4.5%) showed an effect of 50% or more. Effects have a minus sign here. The list shows a part of the results.
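Note: peak tail current of the secondary pulse compared with the same well before compound.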

What follows are compounds tested against human ether-à-go-go-related gene (hERG) potassium channel (human, UniProt Q12809) (assay: primary screen, population patch clamp on CHO cells stably expressing hERG).
human ether-à-go-go-related gene (hERG) potassium channel, sequence (Q12809 whole entry, looked up): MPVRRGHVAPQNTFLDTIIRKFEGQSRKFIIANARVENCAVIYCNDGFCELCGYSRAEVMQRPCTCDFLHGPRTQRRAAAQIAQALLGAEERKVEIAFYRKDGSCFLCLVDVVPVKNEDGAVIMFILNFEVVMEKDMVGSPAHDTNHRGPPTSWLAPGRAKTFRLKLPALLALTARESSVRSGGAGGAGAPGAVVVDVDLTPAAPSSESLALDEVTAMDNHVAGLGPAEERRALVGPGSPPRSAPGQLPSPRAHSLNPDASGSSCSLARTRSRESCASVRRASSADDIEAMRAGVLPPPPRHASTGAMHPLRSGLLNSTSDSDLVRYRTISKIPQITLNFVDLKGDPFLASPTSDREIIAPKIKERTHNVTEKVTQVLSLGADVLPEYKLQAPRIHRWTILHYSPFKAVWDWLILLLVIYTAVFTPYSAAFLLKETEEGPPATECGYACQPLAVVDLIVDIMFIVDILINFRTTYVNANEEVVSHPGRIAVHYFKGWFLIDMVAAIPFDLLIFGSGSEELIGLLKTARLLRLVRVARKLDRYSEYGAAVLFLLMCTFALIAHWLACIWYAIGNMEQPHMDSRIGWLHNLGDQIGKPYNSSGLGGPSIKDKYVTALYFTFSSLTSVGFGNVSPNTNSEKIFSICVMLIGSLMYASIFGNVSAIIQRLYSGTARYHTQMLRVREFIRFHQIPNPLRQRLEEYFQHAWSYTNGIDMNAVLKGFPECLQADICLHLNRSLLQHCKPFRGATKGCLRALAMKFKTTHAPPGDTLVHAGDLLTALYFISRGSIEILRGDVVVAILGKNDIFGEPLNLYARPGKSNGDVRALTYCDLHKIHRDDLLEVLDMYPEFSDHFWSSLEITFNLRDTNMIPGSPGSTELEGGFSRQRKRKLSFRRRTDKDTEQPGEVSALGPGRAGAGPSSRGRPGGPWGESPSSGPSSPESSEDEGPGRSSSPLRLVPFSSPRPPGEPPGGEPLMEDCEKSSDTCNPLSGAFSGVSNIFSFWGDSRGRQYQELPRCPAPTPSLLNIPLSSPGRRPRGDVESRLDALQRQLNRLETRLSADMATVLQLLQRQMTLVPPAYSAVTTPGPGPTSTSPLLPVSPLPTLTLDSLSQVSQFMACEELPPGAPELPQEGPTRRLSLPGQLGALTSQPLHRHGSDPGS
With `O=C(CSc1nnc(-c2ccco2)n1CC1CCCO1)NC1CCCC1` (centres unmarked) the “hERG current change (%, negative = inhibition) at 10uM” value was -4.75%.
In the case of `CCOCCCNC(=O)C1CCN(S(=O)(=O)CC)CC1`, the “hERG current change (%, negative = inhibition) at 10uM” value is reported as 1.19%.
For `Cc1nn(-c2ccccc2)c(C)c1NC(=O)COC(=O)c1ccc(Cl)c(S(N)(=O)=O)c1`, the “hERG current change (%, negative = inhibition) at 10uM” value was -0.198%.
With `O=C(COC(=O)/C=C/c1cccs1)NC1CC1` the “hERG current change (%, negative = inhibition) at 10uM” value was 6.82%.
For `c1coc(C2=Nc3cccc4cccc(c34)N2)c1`, the “hERG current change (%, negative = inhibition) at 10uM” value was -1.03%.
`CCCC1CCC(=NNS(=O)(=O)c2ccc(C)c([N+](=O)[O-])c2)CC1` (centres unmarked) was tested, and the “hERG current change (%, negative = inhibition) at 10uM” value was 8.84%.
With `CNC(=O)c1ccsc1NC(=O)c1ccc2c(c1)CCCC2` the “hERG current change (%, negative = inhibition) at 10uM” value was -2.49%.
In the case of `CSc1ccccc1OCc1cc(C(=O)NCCCn2nc(C)cc2C)no1`, the “hERG current change (%, negative = inhibition) at 10uM” value is reported as -30.5%.
In the case of `Cc1ccc(OCC(O)Cn2c(N3CCOCC3)nc3c2c(=O)[nH]c(=O)n3C)cc1` (centres unmarked), the “hERG current change (%, negative = inhibition) at 10uM” value is reported as -16.1%.
For `Cc1cc(NC(=O)Nc2cccc(C(F)(F)F)c2)n(C)n1`, the “hERG current change (%, negative = inhibition) at 10uM” value was 12.3%.
`Cc1nonc1OCCNc1ccc([N+](=O)[O-])c2cccnc12` was tested, and the “hERG current change (%, negative = inhibition) at 10uM” value was -18%.
`CCOC(=O)c1cc(C#N)c(N2CCCCC2)nc1-c1ccccc1` was tested, and the “hERG current change (%, negative = inhibition) at 10uM” value was -5.08%.
For `CCS(=O)(=O)Nc1cc2c3c(c1)CCC(=O)N3CCC2`, the “hERG current change (%, negative = inhibition) at 10uM” value was 14.2%.
In the case of `C=CCNc1nc(N)c([N+](=O)[O-])c(Nc2cccc(Cl)c2)n1`, the “hERG current change (%, negative = inhibition) at 10uM” value is reported as 3.57%.
In the case of `N#Cc1ccc(C(=O)OCC(=O)Nc2ccc(N3CCOCC3)cc2)cc1`, the “hERG current change (%, negative = inhibition) at 10uM” value is reported as -1.64%.
For `CCCN(C(=O)CCOc1ccc(C(C)(C)C)cc1)c1c(N)n(Cc2ccccc2)c(=O)[nH]c1=O`, the “hERG current change (%, negative = inhibition) at 10uM” value was 29.7%.
With `N/C(=N\OC(=O)/C=C/c1ccccc1)c1cccnc1` the “hERG current change (%, negative = inhibition) at 10uM” value was -5.4%.
With `CN1C(=O)C(=O)/C(=C(/O)c2ccccc2)C1c1ccccc1` (centres unmarked) the “hERG current change (%, negative = inhibition) at 10uM” value was 32.3%.
For `Cc1c(NC(=O)COC(=O)c2cc3c4ccccc4n(C)c3s2)c(=O)n(-c2ccccc2)n1C`, the “hERG current change (%, negative = inhibition) at 10uM” value was -11.8%.
`COc1cccc(N2CCN(C(=O)c3ccc4nc[nH]c4c3)CC2)c1` was tested, and the “hERG current change (%, negative = inhibition) at 10uM” value was 10.6%.
With `COc1ccccc1C(=O)Nc1ccc(NC(=O)c2ccco2)c(C)c1` the “hERG current change (%, negative = inhibition) at 10uM” value was -3.62%.
With `COc1cccc(/C=C/C(=O)OCC(=O)NCc2ccc(Cl)cc2)c1` the “hERG current change (%, negative = inhibition) at 10uM” value was 23.6%.
`O=C(COC(=O)Cc1ccccc1F)Nc1ccc2c(c1)OCO2` was tested, and the “hERG current change (%, negative = inhibition) at 10uM” value was 10.1%.
In the case of `Cn1c(=O)c2c(SCC(=O)NCc3ccco3)nc(-c3ccccc3Cl)nc2n(C)c1=O`, the “hERG current change (%, negative = inhibition) at 10uM” value is reported as -1.4%.
`COc1ccc([N+](=O)[O-])cc1NC(=O)c1cncc(Br)c1` was tested, and the “hERG current change (%, negative = inhibition) at 10uM” value was -12.2%.
`CCOC(=O)c1ccc(NC(=S)N2CCCC(C(=O)OCC)C2)cc1` (centres unmarked) was tested, and the “hERG current change (%, negative = inhibition) at 10uM” value was -4.79%.
In the case of `Cc1ccc2c(NC(=O)c3ccc(Br)o3)cccc2n1`, the “hERG current change (%, negative = inhibition) at 10uM” value is reported as 7.72%.
In the case of `CCCc1cc(=O)oc2cc(OCC(=O)NCC(O)c3ccccc3)ccc12` (centres unmarked), the “hERG current change (%, negative = inhibition) at 10uM” value is reported as 26.8%.
`COc1ccc(NC(=O)CC2SC(=Nc3ccccc3)NC2=O)cc1` (centres unmarked) was tested, and the “hERG current change (%, negative = inhibition) at 10uM” value was -2.59%.
With `CCOc1cc(N2C(=O)CC3CS(=O)(=O)CC32)c(OCC)cc1NC(=O)c1ccccc1` (centres unmarked) the “hERG current change (%, negative = inhibition) at 10uM” value was 5.62%.
In the case of `Cc1ccccc1NC(=O)C1=CC=CN2CCS(=O)(=O)N=C12`, the “hERG current change (%, negative = inhibition) at 10uM” value is reported as -11.7%.
For `CCOc1ccc(-n2c(CC)nc3ccccc3c2=O)cc1`, the “hERG current change (%, negative = inhibition) at 10uM” value was 1.33%.
With `Cc1c2cnn(CC(=O)NCCN3CCOCC3)c(=O)c2c(C)n1Cc1ccc(F)cc1` the “hERG current change (%, negative = inhibition) at 10uM” value was 1.24%.
With `Cn1c(=O)c2c(nc(N/N=C/c3cccs3)n2Cc2ccc(Br)cc2)n(C)c1=O` the “hERG current change (%, negative = inhibition) at 10uM” value was -15.8%.
For `O=C(NCC(=O)N(Cc1ccccc1)C(C(=O)NCC1CCCO1)c1ccccc1)c1cccs1` (centres unmarked), the “hERG current change (%, negative = inhibition) at 10uM” value was 1.57%.
`O=C(OC1CCOC1=O)c1ccc(Cl)c(S(=O)(=O)N2CCOCC2)c1` (centres unmarked) was tested, and the “hERG current change (%, negative = inhibition) at 10uM” value was -16.5%.
In the case of `COc1ccccc1N1CCN(S(=O)(=O)c2ccc(-c3ccc(=O)[nH]n3)o2)CC1`, the “hERG current change (%, negative = inhibition) at 10uM” value is reported as 10.5%.
`Cc1ccnc(SCC(=O)c2cc3ccccc3o2)n1` was tested, and the “hERG current change (%, negative = inhibition) at 10uM” value was 19.9%.
`COc1cc2c(c(OC)c1OC)-c1ccc(N(C)CC(OC)OC)c(=O)cc1[C@@H](NC(C)=O)CC2` was tested, and the “hERG current change (%, negative = inhibition) at 10uM” value was 9%.
For `Cn1c(=O)c2c(ncn2CC(=O)N2CCN(c3cccc(Cl)c3)CC2)n(C)c1=O`, the “hERG current change (%, negative = inhibition) at 10uM” value was -64.2%.
With `Cl.c1ccc2c(CN3CCCCCC3)c[nH]c2c1` the “hERG current change (%, negative = inhibition) at 10uM” value was -18.1%.
With `O=C(c1ccc2c(c1)OCO2)C1CCCN(Cc2cccn2-c2cccnc2)C1` (centres unmarked) the “hERG current change (%, negative = inhibition) at 10uM” value was -58.3%.
With `CCCOc1ccc(C2NC(=S)NC(c3ccccc3)=C2C(=O)Nc2ccc(C)cc2)cc1OC` (centres unmarked) the “hERG current change (%, negative = inhibition) at 10uM” value was 0.514%.
`COC(=O)C1=C(c2ccc(F)cc2OCc2ccccc2)C[C@@H]2CC[C@H]1N2C(=O)NCc1ccccc1OC` was tested, and the “hERG current change (%, negative = inhibition) at 10uM” value was 7.42%.
With `Cc1cc2cc(CCNC(=O)c3ccc(S(=O)(=O)N4CCCC4)cc3)c(=O)[nH]c2cc1C` the “hERG current change (%, negative = inhibition) at 10uM” value was -3.92%.
In the case of `NS(=O)(=O)c1cccc(NC(=O)c2cccc3c(Br)cccc23)c1`, the “hERG current change (%, negative = inhibition) at 10uM” value is reported as 29.7%.
With `Cc1ccc(OCC(=O)NNC(=O)c2cc(C)[nH]n2)cc1` the “hERG current change (%, negative = inhibition) at 10uM” value was 24.6%.
With `O=S(=O)(c1ccc(F)cc1)N1CCN(Cc2nnc(-c3ccccc3)o2)CC1` the “hERG current change (%, negative = inhibition) at 10uM” value was -33.4%.
For `O=C(Nc1ccc(N2CCN(C(=O)c3ccccc3)CC2)c(Cl)c1)c1ncn[nH]1`, the “hERG current change (%, negative = inhibition) at 10uM” value was -5.79%.
With `CCOc1ccc(-n2c(C)nnc2SCC(=O)N(CC)CC)cc1` the “hERG current change (%, negative = inhibition) at 10uM” value was 2.63%.
In the case of `COCCNC(=O)c1cc2c3ccccc3n(C)c2s1`, the “hERG current change (%, negative = inhibition) at 10uM” value is reported as 1.16%.
`O=C(CCCc1ccccc1)NCc1ccc(F)cc1` was tested, and the “hERG current change (%, negative = inhibition) at 10uM” value was -22.8%.
With `Cc1ccc2nc(C)c(Cl)c(=O)n2c1` the “hERG current change (%, negative = inhibition) at 10uM” value was -3.16%.
In the case of `CCOc1ccc(-c2csc(N)c2C(=O)OC)cc1`, the “hERG current change (%, negative = inhibition) at 10uM” value is reported as -0.294%.
For `O=C(O)CSc1ncnc2sc(-c3ccccc3)cc12`, the “hERG current change (%, negative = inhibition) at 10uM” value was 23.6%.
With `CCC(=O)N1CCN(c2ccc(NC(=O)c3c(F)c(F)c(OC)c(F)c3F)cc2)CC1` the “hERG current change (%, negative = inhibition) at 10uM” value was -2.56%.
